# Measurements published in ChEMBL document CHEMBL4888484, “Replenishing the malaria drug discovery pipeline: Screening and hit evaluation of the MMV Hit Generation Library 1 (HGL1) against asexual blood stage Plasmodium falciparum ,using a nano luciferase reporter read-out” (2022).
# Hit rate of the full screen: of about 150,000 compounds, about 540 (0.36%) showed an effect of 50% or more. Some of the results follow.
# Test system: Plasmodium falciparum
# Assay: Primary screen in NF54 nanoGlo assay, in single point, at 2uM, 72h; a lower Z score goes with more inhibition
# Assay type: functional, Erythrocyte
# Conditions: timepoint 72 hour
SMILES,% Inhibition [%],Z score
Cc1nn(C)c(C)c1CCCNC(=O)NCC(=O)N1CCCC1,-7,0.96
Cc1cnc(CNC(=O)c2ccc(C)s2)o1,-5,0.92
Cc1ccc(CCC2(O)CCCCC2)cn1,-11,1.48
c1ccc2nc(NCCN3CCOCC3)cnc2c1,-9,1.05
COc1ccc(NC(=O)[C@@H](c2cc(OC)c(OC)c(OC)c2)N(Cc2ccccc2C)C(=O)Cn2nnc3ccccc32)cc1,1,-0.19
CN1CCN(C(=O)c2ccnnc2)C[C@H]1c1ccccc1,-18,2.78
COc1ccc(NC(=O)N2CCc3c([nH]c4ccc(Cl)cc34)[C@H]2c2ccc(C)cc2)cc1OC,-7,1
CC(C)OCCCNC(=O)[C@]1(C)Cn2cnc(C(=O)Nc3cccc(Cl)c3)c2C(=O)N1C1CC1,-8,1.21
O=c1[nH]nc(CCNc2nc3c(c(=O)[nH]2)Cc2ccccc2OC3)[nH]1,3,-0.52
Cc1c(Cl)cccc1NC(=O)Cn1nc2c(N(C)C)nc3ccccc3n2c1=O,-12,1.74
Cc1c(NC(=O)Cc2ccc(-c3ccccc3)cc2)c(=O)n(-c2ccccc2)n1C,-6,0.98
CC(C)[C@H]1N(C(=O)CN2CCCC2)CCN1S(=O)(=O)c1ccccc1,1,-0.17
CN1CCC(N(C)C(=O)c2csc(NC(=O)c3cccc(Cl)c3)n2)CC1,1,-0.13
COc1ccc(NC(=O)C2CCN(S(=O)(=O)c3cc(-c4noc(C)n4)ccc3Cl)CC2)cc1,-15,1.95
CCN1CC2(CCN(C(=O)Cc3cccnc3)CC2)CC1=O,-8,1.31
O=C(NCCn1ccnc1C1CC1)c1ccoc1,-4,0.76
COc1cc2ccccc2cc1C(=O)Nc1ccc(-c2nc3c(ccc4ccccc43)o2)cc1,-11,1.25
O[C@H](COc1ccc(-c2ccccc2)cc1)CN1CCn2ccnc2C1,-5,1.09
CC[C@H](C)OCC(=O)Nc1cc(Br)ccc1NC(C)=O,-11,1.43
CC1(C)CCc2nnc([C@H]3CCS(=O)(=O)C3)n2C1,-18,3.65
Cc1ccccc1OCC(=O)Nc1cnc2cc(C(F)(F)F)nn2c1,14,-1.82
O=C(c1ccccc1)c1ccc(O)c(CN2CCCN(c3ccc(C(F)(F)F)cn3)CC2)c1O,84,-8.75
COc1cc(-c2ccno2)ccc1S(=O)(=O)Nc1ccc(F)cc1,1,-0.28
CC1(C)C(=O)NC(=O)N1Cc1noc(-c2cnsn2)n1,-38,4.46
Cc1cnc(CNC(=O)C(C)(C)[C@H](NC(=O)OC(C)(C)C)c2ccccc2)s1,1,-0.1
Cc1nc(N2CCC(Cn3nc4c(cc3=O)CCC4)CC2)c2cnn(C)c2n1,-10,2.06
CCOc1ccc(Cl)cc1CNCCN(C)C,-12,2.43

SMILES,% Inhibition [%],Z score
C[C@H]1COCCN1Cc1cn2ccccc2c1C#N,-3,0.36
Cc1nn(CC(C)C)c(C)c1S(=O)(=O)NC1CC(C)OC(C)C1 (stereo unspecified),-12,1.09
CO[C@@H](CNC(=O)Cn1nnnc1N)c1cccs1,-9,0.91
CN(C)c1nnc(CNS(=O)(=O)c2ccc(Cl)s2)[nH]1,-16,2.18
CC(C)CCc1nc(N2CCCN(C(=O)c3cccc(Cl)c3)CC2)c2cnn(-c3cccc(Cl)c3)c2n1,17,-2.37
CC(C)(CNS(=O)(=O)c1ccc(Cl)s1)c1ccsc1,-5,1.02
O=C1CCCCCN1C(=O)c1ccccc1,2,-0.24
OC[C@@]12CCN(Cc3cc(Br)ccc3F)C[C@@H]1CN(Cc1ccccc1)C2,-15,1.72
CC[C@]1(N2CCN(S(=O)(=O)c3cccc(C#N)c3)CC2)CCN(C(=O)C(C)C)C1,-10,1.24
CC(C)(C)CC(C)(C)NC[C@H](O)COCc1ccccc1,-1,0.2
CO[C@@]12CC[C@@H](O)C[C@@H]1N(C(=O)c1c[nH]c3ccc(C)cc3c1=O)CC2,-11,1.28
Cc1csc(CN2CC3(CCOCC3)[C@@H]2C2CC2)n1,3,-0.27
O=C(NCCCCNC(=O)c1cncc(O)c1)c1cncc(O)c1,8,-1.48
Cc1cnccc1CN(C)C(=O)c1cncn1C,-1,0.17
COc1ccc(-n2nc3nc(NCCN4CCOCC4)nc(-c4cccc(OC)c4)c3c2N)cc1,-8,1.07
COc1ccc(S(=O)(=O)N2CCN3C(=O)N(Cc4ccc(C)cc4)C[C@H]3C2)cc1,-3,0.35
CN1CCC(NC(=O)N2CC(C)(C)C2C2CC2)C1=O (stereo unspecified),-8,1.29
Cc1ccc(S(=O)(=O)Nc2ccc3nc(-c4cccc(Cl)c4)oc3c2)cc1,9,-1.07
Cn1cncc1[C@H]1NC(=O)CC[C@@H]1NC(=O)N1CCC[C@@H]1C(F)F,-1,0.07
CN(c1nc2ccc(F)cc2o1)C1CC(O)C1 (stereo unspecified),-5,0.88
CC(CCc1cccc(F)c1)C(=O)N1CCOC(CC(=O)O)C1 (stereo unspecified),3,-0.39
CCCc1nnsc1-c1nc(-c2cccnn2)no1,-11,1.45
COc1ccc(C(=O)N2C[C@@H]3CCC[C@H](C2)C(=O)N3)cn1,-13,2.53
COc1nc2c(cc1C(=O)N1CCO[C@H](c3ccccc3)C1)C(=O)N(C1CCCC1)C2,6,-0.86
CN1C(=O)[C@H]2CN(C(=O)Nc3ccccc3)C[C@H]2C1=O,0,0.03
Cc1cc(O)cc(=O)n1C[C@H](O)c1cccc(O)c1,-6,1.11
